# Test results as given in PubChem BioAssay AID463173 (ICCB-Longwood Screening Facility, Harvard Medical School, 2010).
# The whole screen tested about 52,000 compounds, of which about 4,300 (8.3%) were called active. Cut-off read from the data, not from the text of the source: active = survival mostly below about 52% (no sharp cut-off); inactive = mostly above about 56%. Some of the results follow.
# Tested on: DeltatarO mutant
# Test: S. aureus survival, RN4220 and DeltatarO strains – OD600, teichoic acid synthesis inhibitors, primary screen (AID 463173)
# Details: S. aureus RN4220 wild type/DeltatarO growth, OD600, 18 h, hits give low values, screened at 18.75 µg/mL (by protocol)
row,Compound,survival
1,Cc1oc2c(c(C)cc3oc(=O)c(CC(=O)NCCc4ccc(Cl)cc4)c(C)c32)c1C,inactive: 80%
2,O=C(NCc1ccccc1)c1ccc2c(c1)sc1nc(-c3ccc(F)cc3)cn12,inactive: 101%
3,CC(C)c1nn2c(=O)cc(COC(=O)COc3ccccc3F)nc2s1,inactive: 79%
4,CCc1ccccc1NC(=O)CSc1nc2ccccc2nc1Cc1cccc(OC)c1,inactive: 86%
5,N#CCSc1nnc(-c2ccccc2)n1-c1ccccc1,inactive: 96%
6,COc1cccc(-c2cn3c(n2)sc2cc(C(=O)NCCc4ccccc4)ccc23)c1,active: 38%
7,Cc1ccc(C)c(N2CCN(CCCNC(=O)c3ccc4nc(C(C)C)oc4c3)CC2)c1,inactive: 99%
8,Cc1nn(C)c2c1c(C(F)(F)F)cc(=O)n2C(C)C(=O)NCc1ccccc1 (centres undefined),inactive: 82%
9,CN(C(=O)CN1CCC(NC(=O)c2ccccc2Br)CC1)C1CCCCC1,inactive: 97%
10,COc1cc(OC)c(C(=O)NC2CC(C)(C)NC(C)(C)C2)cc1OC,inactive: 88%
11,CCOCCc1nn2c(=O)cc(COC(=O)c3ccc4c(c3)OCO4)nc2s1,inactive: 128%
12,Cn1c(C(=O)Nc2cccc(Cl)c2)cc2c(=O)n(C)c3ccccc3c21,inactive: 94%
13,COc1ccc(-c2nc(CS(=O)CC(=O)NCc3ccccc3Cl)c(C)o2)cc1OC (centres undefined),inactive: 72%
14,O=S(=O)(c1ccc(Br)cc1)N1CCn2cccc2C1c1ccc(Br)cc1 (centres undefined),inactive: 66%
15,Cc1ccc(CNc2nc3nc(C)c(Cl)c(C)n3n2)cc1,inactive: 90%
16,CC(C)C1NC(=O)c2c(sc3c2CCCC3)N1 (centres undefined),inactive: 72%
17,Cc1cccc(-c2cc(C(=O)O)c3c(-c4ccc(F)cc4)[nH]nc3n2)c1,inactive: 83%
18,Cc1ccc2nc(N(Cc3cccnc3)C(=O)CCc3ccccc3)sc2c1,inactive: 94%
19,CC1(C(=O)O)COC(c2ccc(Cl)cc2)OC1 (centres undefined),inactive: 75%
20,CC(=O)c1ccc(NC(=O)c2nn(C)c3c2CS(=O)(=O)c2ccccc2-3)cc1,inactive: 64%

row,Compound,survival
1,CCOC(=O)c1ccc(CN(Cc2ccc(Cl)cc2Cl)S(=O)(=O)c2cccc(Cl)c2)cc1,inactive: 80%
2,O=C(O)CCSc1nnc(-c2ccc(Cl)cc2Cl)o1,inactive: 66%
3,Nc1ccc(S(=O)(=O)N2CCSC2C(=O)O)cc1 (centres undefined),inactive: 104%
4,CC1(C)O[C@H]2[C@@H](O1)[C@@H](C(=O)Nc1cc(F)ccc1F)O[C@@H]1OC(C)(C)O[C@@H]12,inactive: 103%
5,COc1ccc(CN(C2CCCC2)S(=O)(=O)c2ccc(-n3cnnn3)cc2)cc1,inactive: 88%
6,Cc1ccc(-c2cn3c(n2)sc2cc(C(=O)NC4CCCCC4)ccc23)cc1,inactive: 68%
7,CCOc1ccccc1NC(=O)c1cn(C2CCCCC2)c(=O)c2c1c1ccccc1n2C,inactive: 82%
8,COc1ccc(CCNC(=O)CCn2c(=O)c3cccn3c3ccc(F)cc32)cc1OC,active: 45%
9,O=C1c2ccccc2C(=O)N1CN(Cc1ccccc1)CN1C(=O)c2ccccc2C1=O,inactive: 85%
10,CC1(C)Cc2ccccc2C(N/N=C/c2ccco2)=N1,inactive: 84%
11,Cc1cccc(NC(=O)c2ccc(F)c(S(=O)(=O)N3CCN(c4ccc(F)cc4)CC3)c2)c1,active: -1%
12,CCOC(=O)C1=C(CN2CCCCC2)NC(=O)NC1c1ccc(OC)cc1 (centres undefined),inactive: 84%
13,Cc1nnc(SCC(=O)NCc2ccc(N(C)C)cc2)c2nn(-c3ccccc3)c(C)c12,inactive: 75%
14,Cc1ccc(NC(=O)C2CCN(c3nnc(-n4cccc4)s3)CC2)cc1Cl,inactive: 87%
15,COc1cccc(C(c2c(O)cc(C)n(Cc3ccco3)c2=O)N2CCC(C)CC2)c1 (centres undefined),inactive: 74%
16,CN(CC(=O)O)Cc1nc2ccccc2[nH]1,inactive: 103%
17,COc1ccc(OC)c2sc(N(Cc3cccnc3)C(=O)c3ccc(C(C)=O)cc3)nc12,inactive: 120%
18,CCN(CC)C(=O)Cn1c(=O)n(CCCCCC(=O)NCc2ccccc2)c(=O)c2sccc21,inactive: 64%
19,COc1ccccc1C(=O)Nc1ccccc1SCc1cc(=O)c2ccccc2[nH]1,inactive: 81%
20,O=C(c1ccc2c(c1)N(Cc1ccccc1F)C(=O)c1ccccc1S2=O)N1CCCCC1 (centres undefined),inactive: 88%

row,Compound,survival
1,O=C(NC1CC(=O)N(c2ccc(F)cc2)C1)C1CCCCC1 (centres undefined),inactive: 66%
2,c1ccc(CNc2nnnn2-c2ccccc2)cc1,inactive: 93%
3,Cc1ccn(CC(C)C(=O)O)n1 (centres undefined),inactive: 94%
4,CCOc1cc(/C=C(\C#N)C(=O)Nc2ccccc2C)ccc1OCc1cc(=O)n2nc(CC)sc2n1,inactive: 105%
5,C=CCN1C(=O)C(CCC(=O)O)NC1=S (centres undefined),inactive: 73%
6,COc1ccc(CCC(=O)NCc2nc3cccnc3n2Cc2ccc(C)cc2)cc1,inactive: 86%
7,CCOCCCNC(=O)c1[nH]c2cc(OC)ccc2c1Sc1ccccc1,inactive: 88%
8,Cc1cccc(N(CC(=O)Nc2cccc(Cl)c2C)S(C)(=O)=O)c1C,inactive: 61%
9,Cc1ccc(S(=O)(=O)NCC(c2ccco2)N2CCN(c3ccccc3F)CC2)cc1 (centres undefined),inactive: 83%
10,CC(C)CCNC(=O)c1cccc(-n2cnc3cccnc32)c1,inactive: 107%
11,Cc1ccc(C(=O)COC(=O)c2cccc(NC(=O)c3ccc(Br)cc3)c2)cc1,inactive: 57%
12,Cc1cccc(CS(=O)(=O)Cc2ccc(C(=O)NC(C)c3ccccc3)o2)c1 (centres undefined),inactive: 102%
13,Cc1ccc2c(c1)-c1c(c(C(=O)NCCc3ccccc3)nn1C)CS2,active: 37%
14,COc1cccc(CNC(=O)Cn2c(SCC(=O)Nc3ccc(F)cc3)nc3ccccc32)c1,active: 8%
15,CCc1ccc2[nH]c(=O)c(C(c3nnnn3C3CCCC3)N(C)Cc3ccccc3)cc2c1 (centres undefined),inactive: 96%
16,CCCCN(CC)CCCNC(=O)C1CCN(c2nc3ccc(CC)cc3s2)CC1,inactive: 54%
17,CCCN(C(=O)Cc1c(C(=O)O)[nH]c2ccc(Cl)cc12)c1ccc(OCC)cc1,active: 47%
18,CC(C)COc1ccc(-c2nnn(CC(=O)N3C(C)CCCC3C)n2)cc1 (centres undefined),active: 69%
19,O=C(NC1CC1)c1ccc(Cn2c(SCc3ccccc3F)nc3cccnc32)cc1,inactive: 89%
